Reference: article PMC4336329 (PLoS ONE, 2015)
Screen size: about 310,000 compounds; about 2,200 (0.71%) showed an effect of 50% or more. The effect is printed as a negative number. The list shows a part of the results.

Target: human ether-à-go-go-related gene (hERG) potassium channel (human, UniProt Q12809)
Test: primary screen, population patch clamp on CHO cells stably expressing hERG

Chain of human ether-à-go-go-related gene (hERG) potassium channel (Q12809 whole entry, looked up): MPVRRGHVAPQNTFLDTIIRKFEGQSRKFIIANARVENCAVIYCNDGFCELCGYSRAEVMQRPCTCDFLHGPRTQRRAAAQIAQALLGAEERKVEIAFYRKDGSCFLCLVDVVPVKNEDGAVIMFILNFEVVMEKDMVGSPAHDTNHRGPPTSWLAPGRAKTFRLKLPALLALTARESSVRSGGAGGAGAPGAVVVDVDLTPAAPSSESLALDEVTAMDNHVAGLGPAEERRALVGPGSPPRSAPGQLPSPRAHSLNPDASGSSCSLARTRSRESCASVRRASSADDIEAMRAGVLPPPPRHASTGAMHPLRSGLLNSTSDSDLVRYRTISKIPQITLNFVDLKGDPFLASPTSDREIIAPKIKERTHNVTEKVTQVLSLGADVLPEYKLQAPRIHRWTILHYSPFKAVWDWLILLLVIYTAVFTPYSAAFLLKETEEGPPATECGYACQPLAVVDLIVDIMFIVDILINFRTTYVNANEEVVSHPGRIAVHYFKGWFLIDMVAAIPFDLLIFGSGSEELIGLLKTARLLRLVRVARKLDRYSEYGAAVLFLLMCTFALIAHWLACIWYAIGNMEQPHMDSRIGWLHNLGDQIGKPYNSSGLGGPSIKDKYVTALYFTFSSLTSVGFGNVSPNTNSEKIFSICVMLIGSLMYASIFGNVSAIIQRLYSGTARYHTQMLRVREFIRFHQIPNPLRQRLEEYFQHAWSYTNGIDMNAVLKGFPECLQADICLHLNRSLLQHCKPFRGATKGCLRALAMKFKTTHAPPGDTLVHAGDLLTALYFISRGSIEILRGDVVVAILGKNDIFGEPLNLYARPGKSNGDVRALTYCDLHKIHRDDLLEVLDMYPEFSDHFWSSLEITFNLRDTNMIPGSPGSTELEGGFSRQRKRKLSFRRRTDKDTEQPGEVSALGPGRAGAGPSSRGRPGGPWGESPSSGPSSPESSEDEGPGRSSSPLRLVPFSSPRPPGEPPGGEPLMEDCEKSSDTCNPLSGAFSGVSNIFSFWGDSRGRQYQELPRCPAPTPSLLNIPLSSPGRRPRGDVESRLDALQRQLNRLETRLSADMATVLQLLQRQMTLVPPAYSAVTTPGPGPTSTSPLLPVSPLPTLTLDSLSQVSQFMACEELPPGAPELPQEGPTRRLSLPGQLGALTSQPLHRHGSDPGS

Structure (SMILES)	hERG current change (%, negative = inhibition) at 1uM [%]
COc1ccc(C)cc1S(=O)(=O)N1CCN(C/C=C/c2ccccc2)CC1	6.03
Cc1ccc(NC(=O)C2CCCN2S(=O)(=O)c2ccc(F)cc2)c(C)c1 (stereo not shown)	5.17
Cc1csc(NC(=O)C(C)Oc2ccc(Br)cc2)n1 (stereo not shown)	2.19
CCOC(=O)CCCCCN(Cc1ccccc1)S(=O)(=O)c1ccc([N+](=O)[O-])cc1	6.35
CCCc1cc(C(=O)Nc2cc(Cl)ccc2O)no1	9.85
CCC(C)Sc1nc2c(cnn2-c2ccccc2)c(=O)[nH]1 (stereo not shown)	-3.47
O=C(CSc1ncc(C(F)(F)F)cc1Cl)NCC1CCCO1 (stereo not shown)	7.28
CCCNC(=O)Cn1nc(C(F)(F)F)cc1C	-5.38
O=C(CNc1ccccc1)N/N=C/c1cc([N+](=O)[O-])ccc1N1CCCC1	1.72
CC(=O)N1CCN(C(=O)COC(=O)COc2ccc(C#N)cc2)CC1	12
CCCCC(=O)Nc1ccc(F)c(Cl)c1	4.13
O=C(O)CCCC(=O)Nc1ccc(OCc2nc3ccccc3s2)cc1	10.4
CCOCCn1c(=O)c2c(nc3n2CCCN3CCc2ccccc2)n(C)c1=O	-15.2
CCOC(=O)c1c(C)[nH]c(NC(=O)NNC(=O)c2ccc(OC)cc2)c1C	4.57
CCOC(=O)N1CCN(c2nc(-c3cccs3)cc(C(F)(F)F)n2)CC1	22.8
O=C(N/N=C\C1C(=O)NC(=S)N(c2ccccc2)C1=O)c1ccc(O)cc1 (stereo not shown)	4.91
CCOc1ccccc1CNC(=O)c1cc2occc2n1C	13
CC(=O)/C(=C\N(C)C)Sc1ccc(Cl)cc1	6.14
Clc1cccc(N2CCN(c3nnnn3-c3ccccc3)CC2)c1	2.33
Cc1ccc(NC(=S)Nc2ccc3[nH]c(=O)[nH]c3c2)cc1	7.95
CCOC(=O)C1CCN(CC(=O)N2CCc3ccccc32)CC1	4.4
NS(=O)(=O)c1ccc(N/N=C/c2ccccc2C(=O)O)c([N+](=O)[O-])c1	1.32
CCSc1nnc(C)c2ccccc12	18.6
CCc1nc(CNC(=O)C2CCC(=O)N(Cc3cccc(OC)c3)C2)no1 (stereo not shown)	10.7

Structure (SMILES)	hERG current change (%, negative = inhibition) at 1uM [%]
COc1cc2c(cc1OC)CN(CCC(=O)c1ccc(Br)cc1)CC2	-25.2
CCOc1ccc(NC(=O)C2CCN(C(=O)NC3CCCCC3)CC2)cc1	14.3
CC(C)C(NC(=O)c1ccccc1NC(=O)c1ccco1)C(=O)O (stereo not shown)	-4.22
Cc1onc(-c2ccccc2)c1C(=O)N1CCN(S(=O)(=O)c2ccc3c(c2)OCCO3)CC1	-4.03
O=C(CN1CCOCC1)c1cccc2ccccc12.O=C(O)C(=O)O	6.74
CC(C)Nc1ccccc1	8
COC(=O)c1ccn(CC(=O)NC2CCCCC2)n1	12
O=C(NCCN1CCOCC1)c1cccc(S(=O)(=O)N2CCCC2)c1	9.82
O=C(O)COCC(=O)N1CCN(C2c3ccccc3-c3ccccc32)CC1	12.4
CCOc1ccc(S(=O)(=O)N2CCOCC2)cc1[N+](=O)[O-]	-8.15
Cc1nc2cc(-c3ccccc3)sc2c(=O)n1N	11.5
CC(=O)c1cccc(NC(=S)NCc2ccccc2)c1	15.3
COc1cc2c(c(OC)c1OC)-c1ccc(NC(=O)c3ccc(F)cc3)c(=O)cc1[C@@H](NC(C)=O)CC2	8.22
CCOc1ccc(/C=N/NC(=O)C(=O)NCc2ccco2)cc1	5.5
CCOC(=O)N1CCN(C(=O)CSc2nc3c(c(=O)n2-c2ccccc2OC)SCC3)CC1	1.84
O=C(Oc1cccc(NC(=O)c2ccco2)c1)c1cccc(S(=O)(=O)N2CCCCC2)c1	9.46
COc1ccc(C(=O)NC(=S)NC2CCSC2=O)cc1 (stereo not shown)	-7.49
OCC(O)CN1CCCC1 (stereo not shown)	17.3
COc1ccc(-c2nn(C)c3sc(C(=O)NCc4ccco4)cc23)cc1OC	11.6
C[NH+]1CCC2(CC1)C(C#N)=C(N)NC([S-])=C2C#N	-1.53
COc1ccc(C)cc1-n1nnnc1SC/C(O)=C(\C#N)c1nc2ccccc2[nH]1	3.8
COc1ccc(Nc2nc3ccccc3nc2NS(=O)(=O)c2cccs2)c(OC)c1	12.6
CCc1nnc(NC(=S)Nc2ccccc2)s1	14.2
O=C(NC1CCN(C(=O)C2CCCCC2)CC1)c1ccccc1	12.3

Structure (SMILES)	hERG current change (%, negative = inhibition) at 1uM [%]
Cc1ccc(-n2ncc3c2CC(C)(C)CC3NC(=O)CCc2ccncc2)cc1 (stereo not shown)	-35.8
FC(F)(F)c1cc(Oc2ccc(Cl)cc2)nc(-c2ccccn2)n1	19
CC(=O)Nc1ccc(S(=O)(=O)Nc2ccc(F)c([N+](=O)[O-])c2)cc1	13.5
Cc1ccc(NC(=O)Nc2ccc3c(c2)OCO3)nc1	17.8
CCN(CC)C(=O)C(C)N(C#N)c1nc(C)cc(C)n1 (stereo not shown)	11
COCC(=O)Nc1cc(C(=O)OC)cc(C(=O)OC)c1	15.6
CN(CCOc1ccccc1)CC(O)COCc1ccccc1F (stereo not shown)	0.0936
O=C(Nc1ccccc1-c1ccccc1)c1ccccc1	15.4
Cc1ccc(C(=O)NCCc2ccc(F)cc2)s1	11
CC(c1ccccc1)n1c(Br)nc2c1c(=O)[nH]c(=O)n2C (stereo not shown)	13
CC(=O)Nc1nnc(SCC(=O)Nc2nc(C)cs2)s1	7.85
CCOC(=O)C1CCCN(C(=O)c2cn(CC)c3ccc(S(=O)(=O)N4CCCC4)cc3c2=O)C1 (stereo not shown)	-1.19
COCCn1nnnc1CN(CCc1ccccc1)Cc1cc2ccc(C)cc2[nH]c1=O	3.83
Cc1c(C#N)c(N=CN(C)C)c(C(=O)c2ccc(Br)cc2)n1-c1ccccc1	6.7
CC(C)C(OC(=O)c1ccco1)C(=O)NCc1ccco1 (stereo not shown)	9.76
O=S(=O)(Nc1c(O)ccc2ccccc12)c1cccc2ccccc12	12.8
Br.C1CN=C(NC23CC4CC(CC(C4)C2)C3)C1	7.47
Cc1csc(N(C(=O)Cc2ccccc2F)c2ccccc2)n1	6.63
CC(C)CN1CCC(=O)N([C@H](CO)c2ccccc2)CC1	12.6
N/C(=N\OC(=O)COc1ccc2ccccc2c1)c1cccnc1	14
CCC(=O)N1CCc2nc(-c3ccccc3)sc2C1	7.67
CCc1ccc2[nH]c(=O)c(CN(CCN(CC)CC)C(=O)NC3CCCCC3)cc2c1	-51.5
Cc1ccc(C)c(NS(=O)(=O)c2csc(C(N)=O)c2)c1	13.4
CC(C)n1nc(C(=O)NC2CCCCCC2)c2ccccc2c1=O	8.98

Structure (SMILES)	hERG current change (%, negative = inhibition) at 1uM [%]
Br.CCCCCCCCCn1c2c(c(=N)c3c1CCC3)CCC2	-65.5
CCC1CCCCN1C(=O)CSc1nc(N)c(NC(=O)c2ccco2)c(=O)[nH]1 (stereo not shown)	14.5
Cc1ccccc1NC(=O)Cn1c(C)nc2ccc(N)cc2c1=O	7.97
N#Cc1cc2c(nc1SCC(=O)Nc1sc3c(c1C#N)CCC3)CCCCCC2	9.58
N#CCSc1nc(-c2ccccc2)nc2ccc(F)cc12	13
Cc1csc(C(=O)NCC(=O)NNC(=O)c2cccc(Cl)c2)c1	9.31
COc1ccc(C(=O)NNC(=O)CSc2nc3c([nH]2)c(=O)n(C)c(=O)n3C)cc1	26
CCCCCOC(=O)Cc1c(O)c2ccccc2n(C)c1=O	-1.9
Cn1c(=O)n(-c2cccc(Cl)c2)c(=O)c2c3c(sc21)COC(C)(C)C3	24.7
CCCC(=O)NCc1ccccc1Cl	5.01
CCOc1cc(CN2CCN(c3ccc(C(C)=O)cc3)CC2)ccc1OC	-18.3
COc1cccc(N=Nc2c(=O)[nH]n3c(=O)c4c([nH]c23)CCC4)c1	16.5
O=C(COC(=O)C1COc2ccccc2O1)NC1CCS(=O)(=O)C1 (stereo not shown)	10.4
CC(c1ccc(F)cc1)n1cc(C(=O)NCCN(C)C)nn1 (stereo not shown)	24.1
CCCc1ncc(C(O)(c2ccccc2)c2ccccc2)n1C.Cl	11.5
CC(C)OC1(c2ccccc2)OC(=O)c2ccccc21 (stereo not shown)	-3.42
COC(=O)N1CC(C)N(C(=O)OC)CC1C (stereo not shown)	9.79
COc1cc(OC)cc(C(=O)OCC(=O)NCc2ccc3c(c2)OCO3)c1	14.3
CC(=O)Nc1ccc(S(=O)(=O)NC2CC3CCC2C3)cc1 (stereo not shown)	9.59
Cc1ccc(CCNC(=O)C2CCC(CNc3c(N4CCC(C)CC4)c(=O)c3=O)CC2)cc1 (stereo not shown)	1.16
COc1ccc(-n2nc(C(=O)NCC(=O)Nc3ccc(F)cc3)c3ccccc3c2=O)cc1	18.4
COC(=O)c1sccc1Oc1c(Cl)cccc1[N+](=O)[O-]	7.82
